The values that follow come from paper PMC4336329 (PLoS ONE, 2015).

Out of some 310,000 compounds screened, about 14,000 (4.5%) showed an effect of 50% or more. The effect is printed as a negative number. Some of the results follow.
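Further: peak tail current of the secondary pulse compared with the same well before compound.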

For this assay, the target named is human ether-à-go-go-related gene (hERG) potassium channel (human, UniProt Q12809). Description: primary screen, population patch clamp on CHO cells stably expressing hERG.
Chain of human ether-à-go-go-related gene (hERG) potassium channel (Q12809 whole entry, looked up): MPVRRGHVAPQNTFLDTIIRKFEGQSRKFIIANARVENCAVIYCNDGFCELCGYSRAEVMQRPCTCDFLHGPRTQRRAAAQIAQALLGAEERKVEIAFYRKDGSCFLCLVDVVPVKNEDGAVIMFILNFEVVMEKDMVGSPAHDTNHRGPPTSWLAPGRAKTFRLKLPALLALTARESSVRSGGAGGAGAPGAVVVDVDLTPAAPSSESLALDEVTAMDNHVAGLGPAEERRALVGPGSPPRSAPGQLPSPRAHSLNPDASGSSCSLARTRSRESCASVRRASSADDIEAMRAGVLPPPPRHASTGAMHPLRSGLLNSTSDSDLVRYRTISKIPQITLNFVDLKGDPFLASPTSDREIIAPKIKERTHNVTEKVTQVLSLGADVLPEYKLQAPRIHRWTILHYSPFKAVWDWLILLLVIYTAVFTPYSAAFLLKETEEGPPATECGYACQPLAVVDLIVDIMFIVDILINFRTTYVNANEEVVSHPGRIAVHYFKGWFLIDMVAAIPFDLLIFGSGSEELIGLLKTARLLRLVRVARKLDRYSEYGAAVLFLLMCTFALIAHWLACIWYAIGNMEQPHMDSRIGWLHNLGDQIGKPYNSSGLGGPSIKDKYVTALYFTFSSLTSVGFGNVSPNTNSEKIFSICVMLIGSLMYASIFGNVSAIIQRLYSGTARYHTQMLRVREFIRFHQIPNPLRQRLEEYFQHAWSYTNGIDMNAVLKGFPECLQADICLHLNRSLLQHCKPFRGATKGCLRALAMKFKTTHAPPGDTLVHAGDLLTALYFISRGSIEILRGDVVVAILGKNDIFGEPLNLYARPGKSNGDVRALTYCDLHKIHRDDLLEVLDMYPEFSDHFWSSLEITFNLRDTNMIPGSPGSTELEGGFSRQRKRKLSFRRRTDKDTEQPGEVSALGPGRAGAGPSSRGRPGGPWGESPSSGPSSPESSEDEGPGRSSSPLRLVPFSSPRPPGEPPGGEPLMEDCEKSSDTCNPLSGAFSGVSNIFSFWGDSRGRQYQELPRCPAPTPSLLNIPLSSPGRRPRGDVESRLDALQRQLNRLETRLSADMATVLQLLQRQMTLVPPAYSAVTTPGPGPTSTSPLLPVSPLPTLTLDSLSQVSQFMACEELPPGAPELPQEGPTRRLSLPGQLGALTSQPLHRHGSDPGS
For the compound `O=C(CSCc1cc(=O)n2ccsc2n1)Nc1ccc(F)cc1`, the “hERG current change (%, negative = inhibition) at 10uM” value was found to be 27.1%.

`Cc1ccc(Cn2c(SC(C)C(N)=O)nc3ccccc3c2=O)cc1` (stereo not shown): the “hERG current change (%, negative = inhibition) at 10uM” value is -8.84%. With `NC(=O)CCN1CCC(c2nc3ccccc3s2)CC1` the figure was -40.3%; with `Clc1ccc2c(c1)-c1nnc(Br)n1-c1ccccc1S2`, -52.5%; with `COc1ccccc1OCC(=O)O`, 11%.

Regarding `COCc1ccc(CN2CCC(n3nccc3NC(=O)C(OC)c3ccccc3)CC2)o1` (stereo not shown), the “hERG current change (%, negative = inhibition) at 10uM” value stood at 12.9%. With `Cc1ccc(S(=O)(=O)NCCC(=O)NCC(c2ccc(F)cc2)N2CCOCC2)cc1` (stereo not shown) the figure was -5.84%; with `Cc1nn(C)c(C(=O)NNC(=S)NCc2ccco2)c1Br`, 37.4%; with `CC1Cc2cc(/C(O)=C3/C(=O)C(=O)N(CCCn4ccnc4)C3c3cccc([N+](=O)[O-])c3)ccc2O1` (stereo not shown), 17.4%.

As to `CCn1c(C)nc2cc(C(=O)NNC(=O)c3ccc(C)cc3)ccc21`, the “hERG current change (%, negative = inhibition) at 10uM” value is recorded as -8.93%. As to `CC(C)(C)C1CCc2nc(NC(=O)Cc3cn4ccsc4n3)sc2C1` (stereo not shown), the “hERG current change (%, negative = inhibition) at 10uM” value is -9.53%.

As to `CC1CCCC(NC(=O)CN2C(=O)COc3ccccc32)C1C` (stereo not shown), the “hERG current change (%, negative = inhibition) at 10uM” value came to 25%. `Cc1nc2ccc(-c3nc4ccccc4o3)cc2[nH]1`: the “hERG current change (%, negative = inhibition) at 10uM” value is -3.22%. For `COc1cccc(C(=O)N/N=C(\CC(C)C)c2ccccc2)c1`, the “hERG current change (%, negative = inhibition) at 10uM” value stood at 2.94%.

In the case of `Cc1ccc(SCC(=O)OC(C)C(=O)NCc2ccccc2)cc1C` (stereo not shown), the “hERG current change (%, negative = inhibition) at 10uM” value worked out at 1.1%. Regarding `Cc1ccc(NC(=O)CN(C)c2ccc(S(=O)(=O)N3CCN(C)CC3)cn2)cc1`, the “hERG current change (%, negative = inhibition) at 10uM” value is on record as -3.45%. Turning to `CC(=O)c1cccc(NC(=O)c2noc3c2CCc2ccccc2-3)c1`, the “hERG current change (%, negative = inhibition) at 10uM” value is reported as 19.1%. With `O=C(CN1C(=O)NC2(CCCCCC2)C1=O)N1CCC(Cc2ccccc2)CC1` the figure was -24.4%. The same measure for `N#C/C(=C\c1ccc(-c2ccc([N+](=O)[O-])cc2)o1)C(=O)Nc1nc(-c2cccs2)cs1`: 2.16%; for `CCC1(C(=O)c2ccc(Cl)cc2)C2c3ccccc3OC(=O)C21C(=O)Nc1ccccc1` (stereo not shown): 6.26%. With `O=C(Cn1nnc(-c2ccccc2)n1)N/N=C/c1cccc([N+](=O)[O-])c1`, the “hERG current change (%, negative = inhibition) at 10uM” value was -5.78%. With `Nc1nc(Cl)cc(Sc2ccc(F)cc2)n1` the figure was 7.51%; with `c1ccc(-c2ccc(-n3ccnc3)cc2)cc1`, -42.4%. With `Cn1cnnc1SCC(=O)n1c2ccccc2c2ccccc21` the figure was 3.52%; with `COc1ccc(CCNc2ccc(N3C(=O)CC(C)C3=O)cc2[N+](=O)[O-])cc1` (stereo not shown), 10.6%.

For `CC(=O)Nc1ccc(SCC(=O)c2cc(C)n(CC(F)(F)F)c2C)cc1`, the “hERG current change (%, negative = inhibition) at 10uM” value came out at 6.69%. With `COc1ccccc1N=Nc1c(C)noc1C` the figure was 10.6%; with `CCn1c(CNc2ccc(Cl)cc2)nnc1SCC#N`, 5.25%. The same measure for `CCCCn1c(C)c(C(=O)O)c2cc(OC)ccc21`: 1.59%. Take `CNC(=O)C(=O)Nc1ccc2c(c1)N(S(=O)(=O)c1cccs1)CCC2`: the “hERG current change (%, negative = inhibition) at 10uM” value is on record as -29.4%. The same measure for `COc1ccc(S(=O)(=O)N(Cc2cc3ccc(OC)cc3[nH]c2=O)CC2COCCO2)cc1` (stereo not shown): -24.4%. With `COc1ccc(OC)c(S(=O)(=O)NC2CC(=O)N(c3cccc(F)c3)C2)c1` (stereo not shown) the figure was -0.814%; with `C/C(N)=C(/C#N)C(=O)CSc1nnc(Nc2cccc(C)c2C)s1`, -0.581%; with `Cn1cc(C(=O)N2CCc3ccccc3C2)c(=O)c2cc(S(=O)(=O)N3CCCCC3)ccc21`, -13.9%. With `Cc1ccc(S(=O)(=O)Cn2nnnc2C(CC(C)C)N2CCN(C)CC2)cc1.Cl` (stereo not shown) the figure was 6.39%; with `N#Cc1ccc(-n2nccc2-c2cnc3n(c2=O)CCS3)cc1`, 12.9%; with `O=C(c1ccc(Oc2ccc(Cl)cc2)c([N+](=O)[O-])c1)N1CCCC1`, -63%. In the case of `COc1cc([C@@H]2Oc3cc(C4Oc5cc(O)cc(O)c5C(=O)[C@H]4O)ccc3O[C@H]2CO)ccc1O` (stereo partly shown), the “hERG current change (%, negative = inhibition) at 10uM” value is -1.99%.

As for `O=C(Nc1nc2n(n1)C(c1ccccc1)CC(c1ccc(Cl)cc1)N2)c1ccco1` (stereo not shown), the “hERG current change (%, negative = inhibition) at 10uM” value was -53.1%.

As to `CSc1cc(C)n(-c2ccccc2C)c(=S)c1C(C)=O`, the “hERG current change (%, negative = inhibition) at 10uM” value is reported as 14%. In the case of `COc1ccc(C)cc1Nc1nc(C)nc2sc(C)cc12`, the “hERG current change (%, negative = inhibition) at 10uM” value was 10%. Turning to `O=C(O)C(Cc1c[nH]c2ccccc12)N1C(=O)C2C3c4ccccc4C(c4ccccc43)[C@@H]2C1=O` (stereo partly shown), the “hERG current change (%, negative = inhibition) at 10uM” value is listed as 18%. With `COc1ccc(-n2c(C)ccc2C)c([N+](=O)[O-])c1` the figure was 13.5%.
